Experimental data published in PubChem BioAssay AID652104 (National Center for Advancing Translational Sciences (NCATS), 2013).
Hit rate of the full screen: of about 410,000 compounds, about 7,200 (1.8%) were called active. Inconclusive means that the source gave no clear call. Such entries were picked first, then a sample of the others. The call rests on the fitted dose curve; in most records, active means well fitted activation curve with a large enough effect; inconclusive means small, poorly fitted or top-dose-only effect, or another doubt; inactive means no such curve, though single readings can be large or run the other way. Potencies of inconclusive entries are doubtful fits and often do not repeat.

experiment: qHTS of TDP-43 Inhibitors; conditions: TDP-43 expressing yeast growth rescue, BacTiter-Glo, 24 h; series mostly up to 46.1 µM; further: nearly all actives have a fitted effect of over 50% in size
Procedure, shortened: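 Galactose-induced TDP-43 yeast, OD600=0.02, compound pinned; 24 hr, 30 deg C; BacTiter-Glo luminescence for growth. Inhibitors of TDP-43 toxicity read as activators.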
Potency means the concentration at half of the fitted maximal effect; tags describe the fitted curve by direction and shape.

Potency, inconclusive:
COc1ccc(OC(C)C(=O)N(C)Cc2nc(-c3ccc(C)cc3)no2)cc1 (centres undefined) 8.91 µM [activator, partial curve]
CCCCCc1nnc(NC(=O)OCCC)s1 8.91 µM [activator, partial curve]
Cc1ccc(OCCOc2ccc(Br)cc2)c([N+](=O)[O-])n1 35.5 µM [activator, single point]
Cc1cc(O)ccc1N/C=C1\CCCC1=O 3.16 µM [activator, partial curve]
O=C(Cc1csc(N2CCOCC2)n1)N/N=C/c1ccc(F)cc1 15.8 µM [activator, single point]
COC(=O)c1ccc(-c2ccc(Cl)cc2)nc1C 14.1 µM [activator, partial curve, poor fit]
CC1Cc2cc(C(=O)O)ccc2O1 (centres undefined) 12.6 µM [activator, single point]
CCCn1c(SCc2nc(-c3ccccc3OCC)no2)nnc1-c1ccc(Cl)cc1 35.5 µM [activator, single point]
Cc1ccc(OCCn2cc(C#N)c3ccccc32)cc1 12.6 µM [activator, partial curve]
CC(C)c1ccc(NC(=O)Cn2cc(S(=O)(=O)Cc3cccc(Cl)c3)c3ccccc32)cc1 4.47 µM [activator, full curve, poor fit]
Clc1ccc(Cn2c(-c3cccnc3Cl)nc3ccccc32)c(Cl)c1 22.4 µM [activator, single point]
CCOC(=O)c1ccc(NC(=O)CSc2cn(CC(=O)N3CCCC3)c3ccccc23)cc1 15.8 µM [activator, partial curve]
CC(=O)N1c2ccc(C)cc2Sc2c1ccc1ccccc21 31.6 µM [activator, single point]
CC(C)[C@H](NC(=O)C1CC(=O)N(c2ccc(F)cc2)C1)C(=O)N1CCCCC1 (some centres undefined) 22.4 µM [activator, single point]
COC(=O)c1sccc1NC(=O)Nc1cccc(F)c1 10 µM [activator, single point]
c1ccc(-c2ccc(C3=Nn4c(nnc4-c4cc(-c5ccccc5)n[nH]4)SC3)cc2)cc1 14.1 µM [activator, single point]
Cc1nc2c(OCc3ccc(OC(F)F)cc3)cccn2c1N(C)C(=O)CCC1CCCC1 35.5 µM [activator, single point]
COc1ccc(NC(=O)N(C)C[C@H]2OCCCC[C@@H](C)Oc3ccc(NC(=O)c4ccccc4)cc3C(=O)N([C@H](C)CO)C[C@@H]2C)cc1 1.12 µM [activator, full curve, poor fit]
Cc1cc(F)ccc1-c1cc(C(=O)NCc2ccc(C(F)(F)F)cc2)[nH]n1 6.31 µM [activator, partial curve]
Cc1cccc(C)c1NC(=O)C(c1ccccc1)n1c(=O)c(-c2ccco2)nc2ccccc21 (centres undefined) 35.5 µM [activator, partial curve]
CSc1cccc(NS(=O)(=O)c2cccc3nsnc23)c1 35.5 µM [activator, single point]
Cc1cccc(OCCCn2c(=O)oc3ccc(C)cc32)c1 11.2 µM [activator, partial curve]
COc1ccc(Nc2cc(Nc3cccc(OC)c3)ncn2)cc1 4.47 µM [activator, single point]
O=C(CN1C(=O)COc2ccc(Cl)cc21)Nc1cccc(F)c1 39.8 µM [activator, partial curve, poor fit]
C[C@@H](C(=O)Nc1ccc2ccccc2c1)[C@H]1C[C@]1(C)[C@H](NC(=O)c1cnccn1)c1ccccc1 35.5 µM [activator, partial curve]
N#Cc1nc(COc2ccc(Br)cc2)oc1N1CCCC1 35.5 µM [activator, single point]
COC(=O)c1ccccc1NC(=O)CSc1ccc(C)cc1 25.1 µM [activator, partial curve]

Potency, inactive:
COC(=O)C1(C(=O)OC)C[C@H](c2ccc(OC)cc2)N(Cc2ccccc2OC)[C@@H]1c1ccccc1
COc1cc(C)ccc1OCc1cc(C(=O)NC(c2ccccn2)C(F)(F)F)no1 (centres undefined)
COc1cc2c(cc1OC)n(CC(=O)c1cccc(Cl)c1)c(=O)n1nc(CCn3nc(C)cc3C)nc21
O=C(O)/C=C/C(=O)Nc1ccccc1-c1ccccc1NC(=O)/C=C/C(=O)O
O=C1CCCCC1C(=O)c1cn(-c2ccc(Cl)c(Cl)c2)nn1 (centres undefined)
Nc1nnnn1/N=C/c1cc(Br)ccc1O
O=c1[nH]c(C2CCCN(S(=O)(=O)c3ccccc3Cl)C2)nc2c1nnn2Cc1ccc2c(c1)OCCO2 (centres undefined)
O=C(CSc1cccc2cccnc12)Nc1ccc(S(=O)(=O)N2CCOCC2)cc1
COc1ccccc1NC(=O)CCC(=O)N1CC(C)Oc2ccc(C)cc21 (centres undefined)
c1ccc(-c2nc(NCc3cccs3)c3ccccc3n2)cc1
COc1ccc2cc(CN(Cc3ccco3)Cc3nnnn3C3CCCCC3)c(=O)[nH]c2c1
CC1CN(C(=O)COc2ncnc3ccccc23)CC(C)O1 (centres undefined)

Potency, active:
Cc1ccccc1C(=O)Nc1sc2c(c1C(=O)N1CCCCC1)CCC(C)C2 (centres undefined) 17.8 µM
CCc1ccccc1OCC(=O)Nc1ccc(F)c(S(=O)(=O)N2CCOCC2)c1 15.8 µM
O=C(CCS(=O)(=O)c1nc(-c2cccs2)cc(C(F)(F)F)n1)Nc1cc(Br)ccc1O 17.8 µM
Clc1cccc(Nc2nc(-c3ccncc3)cs2)c1 12.6 µM
Cc1onc(-c2ccccc2)c1C(=O)N1CCN(S(=O)(=O)c2ccccc2C(F)(F)F)CC1 15.8 µM
